Laboratory results published in a collection of fitness landscapes (doi:10.1016/j.celrep.2020.107928).
Whole data set: some 81,000 sequences, median “one-hybrid fitness for binding NBS DNA” near -0.1, cut for the highest 2% near 0.36. This is one part of the list.

B1: Caulobacter ParB omega fusion; a variant is named by its letters at X, in order, B8GW30 (parent)
chain: MESVVVGEPGMSEGRRGLGRGLSALLGEVDAAPAQAPGEQLGGSREAPIEILQRNPDQPRRTFREEDLEDLSNSIREKGVLQPILVRPSPDTAGEYQIVAGERAWRAAQRAGLKTVPIMVRELDDLAVLEIGIIENVQRADLNVLEEALSYKVLMEKFERTQENIAQTIGKSXSHVANXMRLLXLPDEVQSYLVSGELTAXHARAIAAAADPVALAKQIIEGGLSVRETEALARKAPNLSAGKSKGGRPPRVKDTDTQALESDLSSVLGLDVSIDHRGSTGTLTITYATLEQLDDLCNRLTRGI

Variants of: B1
Experiment: one-hybrid fitness for binding NBS DNA (the Noc-binding site; scaled: cognate 1, non-cognate 0); higher = stronger binding
Details: with NBS DNA site
Procedure, shortened: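 On M9-minus-histidine containing 0.1 mM IPTG and 5 mM 3-AT, E. coli USO cells with a HIS3 reporter, site 19 bp from the promoter, grew 48 hours at 37°C to select Caulobacter ParB libraries randomised at four specificity codons. Plasmids from before and after were Illumina-sequenced, with three replicate libraries pooled and variants under 10 reads left out. Fitness is the log change in variant-to-wild-type read ratio, rescaled against cognate and non-cognate.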

one-hybrid fitness for binding NBS DNA, 0.272:
RSRY

one-hybrid fitness for binding NBS DNA, 0.41:
QKRV

one-hybrid fitness for binding NBS DNA, ≤ 0.2:
AEVT
YVTV
VPQM
FAHC
DIYL
RAGY
YEEK
DAPI
ALWF
RSDI
QNHE
HLCY
RILE
PVKM
HLCH
YTPE
GETR
PYIT
MCAS
MEPG
QAWY
KYSG
AHTC
RGLY
HVSN
DAQT
GRQS
TQAC
STNS
RGPL
HKNF
PGVD
RLTW
LCIY
LMRP
PWTT
YVQS
NDST
GDNT
RFKF
RHFC
ETRF
SLEG
ATGQ
VEYG
NGTA
ERHT
HTKS
KLPR
IMSY
GSVL
KLYF
SIQT
RDLT
RQFD
NDYC
LLCR
EYKC
VPVS
THAW
SIRA
HNKR
MVCV
SPGI
DWAC
HRFN
SPQQ
SPTV
GVSD
IAKL
SDWV
RNMT
SRSC
MGRL
GYEI
TVGT
MEVS
GHPM
PNCM
TFNV
IHPS
HYKW
YDTT
ANWS
RICK
TMNT
QNFC
NINQ
EMHA
AQNG
GVFR
SNEQ
NPMT
KLYY
IMKY
NPMS
KFEG
AQLK
AVLL
KTRL
VGTF
QETE
RPTT
TPGC
HAMA
NDIP
GKSH
RPDH
RFNC
RGFA
YDGG
TLYW
DPKV
YKML
AYPP
QHTE
ALQY
GHKI
CCLS
ALIR
HYFR
AAGE
DAPN
VAPV
FSFG
RHYF
WMDV
RKME
MGLN
THNQ
IYFS
SCCR
TLNN
QGKT
HQDC
LMHE
SHLS
IPFR
MVFC
WVTC
ACNY
MLVQ
RMCN
KYPS
CIYG
KNSS
PKAQ
TRHH
DTPL
ASII
PTPT
WCIS
CTVG
AVGF
RSAA
FHKR
LSDD
EGPC
CIRL
LMMV
TSKP
GPHN
DFLC
RIQD
WRRN
EPPS
PRPG
SMTS
YNRN
GKTN
LHCS
GFPW
NASA
QHAG
WLDV
KHLR
PQMV
QLTV
YQRE
ASVP
HKAL
MGVD
QLIP
SKTC
SLCA
ITND
TAEE
NCKF
QPYE
SAKH
DNRR
WSIS
SCTF
AFTF
HSTD
EVLK
SKDS
VDCF
MMLS
YNPT
QSGC
RYFG
LHDL
DPIM
LQSW
VYLF
THNR
PLRR
SNTD
PSMS
YLGS
KSKF
PRIE
WLMT
RRDL
RPGR
YVYC
RQQF
HLVE
RTMY
FGKY
SVCN
CVPR
VIRN
SWVS
YCNN
AKER
VKVA
NPSM
HPAA
GRFR
RWVK
GKYI
MLWG
NFVG
GWYR
LSGM
YLHK
MFDS
QTTP
TDVG
VDRM
CPED
LLKY
GNPN
PCKM
HITL
LSTQ
IMLC
QGPG
DVFS
RNLI
WIYS
QMYE
TADD
PYST
MDVG
STST
SDDT
CLKY
RKEQ
AISR
REYS
QTIL
VTPG
NNKT
RCSG
MSEN
TRNK
AADA
DSTN
NEMS
TDKG
KSPG
SQRR
ICSS
ARGV
HNHS
KDRG
QAIF
HSEK
LLKT
DYTR
REDR
GDND
IYDS
QGSR
IFSS
LLAK
PHKH
TGRT

one-hybrid fitness for binding NBS DNA, 0.203:
QSKL

one-hybrid fitness for binding NBS DNA, 0.205:
SCRR

one-hybrid fitness for binding NBS DNA, 0.62:
VRKR

one-hybrid fitness for binding NBS DNA, 0.345:
VRRS
QQKD

one-hybrid fitness for binding NBS DNA, 0.22:
SWMS

one-hybrid fitness for binding NBS DNA, 0.486:
QYRY

one-hybrid fitness for binding NBS DNA, 0.254:
KRKC

one-hybrid fitness for binding NBS DNA, 0.353:
RMRY
RAYT

one-hybrid fitness for binding NBS DNA, 0.234:
QLKW

one-hybrid fitness for binding NBS DNA, 0.391:
RKKC

one-hybrid fitness for binding NBS DNA, 0.231:
QQNN
